# Counter-ions that a name gives are not always drawn. Out of some 1,300 compounds screened, about 40 (3%) showed activity. The list shows a part of the results.
# System: Plasmodium falciparum NF54/iGP1_RE9H ulg8 stage V gametocytes
# Test: gametocyte viability (luciferase signal relative to DMSO control) (% of DMSO control); higher = less gametocytocidal activity, active = 50 or less
# Conditions: exposure time: 72 h
# Method in brief: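 In 96-well plates holding nanolitre spots of compound (10 mM DMSO stocks), NF54/iGP1_RE9Hulg8 stage V gametocytes from day 12 were added at ~2.5% gametocytemia and 3% hematocrit in medium with 0.5% Albumax II, giving single wells at 10 µM or 1 µM. Incubation lasted 72 h at 37 °C. Each 90 µl sample then received 10 µl D-luciferin (30 mg/ml) before luminescence reading on an IVIS Lumina II, and viability was normalized to the mean of DMSO vehicle wells on the same plate.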
Compound,gametocyte viability (concentration: 1 µM),gametocyte viability (concentration: 10 µM)
CC(NCCc1ccc(O)cc1)C(O)c1ccc(O)cc1 (stereo not drawn) [Ritodrine hydrochloride],inactive: 90,inactive: 91
CCc1nn(CCCN2CCN(c3cccc(Cl)c3)CC2)c(=O)n1CCOc1ccccc1 [Nefazodone HCl],inactive: 81.7,inactive: 71.4
CCC(C)(C)C(=O)O[C@H]1C[C@@H](C)C=C2C=C[C@H](C)[C@H](CC[C@@H]3C[C@@H](O)CC(=O)O3)[C@H]21 [Simvastatin],inactive: 80.4,inactive: 85.5
N=c1nc(N2CCCCC2)cc(N)n1O [Minoxidil],inactive: 102,inactive: 96
CC(=O)Oc1ccc(C(c2ccc(OC(C)=O)cc2)c2ccccn2)cc1 [Bisacodyl],inactive: 83.9,inactive: 83.5
CCCc1nn(C)c2c(=O)[nH]c(-c3cc(S(=O)(=O)N4CCN(C)CC4)ccc3OCC)nc12 [Sildenafil],inactive: 90.3,inactive: 70.6
O=C(O)c1ccccc1Nc1cccc(C(F)(F)F)c1 [Flufenamic acid],inactive: 86.8,inactive: 88.2
CC[N+](C)(CC)CCC[n+]1c(-c2ccccc2)c2cc(N)ccc2c2ccc(N)cc21 [Propidium iodide],inactive: 80,inactive: 84.1
Clc1ccc(C(c2ccccc2Cl)C(Cl)Cl)cc1 (stereo not drawn) [Mitotane],inactive: 85.4,inactive: 80.8
O=C1O[C@H]([C@@H](O)CO)C(O)=C1O [Ascorbic acid],inactive: 79.5,inactive: 84.9
Nc1ccc(C(=O)O)c(O)c1 [4-aminosalicylic acid],inactive: 95.8,inactive: 98.6
O=C1Nc2ccc(Cl)cc2[C@@](C#CC2CC2)(C(F)(F)F)O1 [Efavirenz],inactive: 85.8,inactive: 94.3
OCCN1CCN(CC/C=C2/c3ccccc3Sc3ccc(Cl)cc32)CC1 [Zuclopenthixol hydrochloride],inactive: 100,inactive: 95.8
Nc1nc(/C(=C/CC(=O)O)C(=O)N[C@@H]2C(=O)N3C(C(=O)O)=CCS[C@H]23)cs1 [Ceftibuten],inactive: 97.5,inactive: 94.8
Nc1ccc(/N=N/c2ccccc2)c(N)n1 [Phenazopyridine hydrochloride],inactive: 88.3,active: 48.1
CCc1cc(Cl)c(OC)c(C(=O)NC[C@@H]2CCCN2CC)c1O [S(-)Eticlopride hydrochloride],inactive: 81.3,inactive: 86.4
CN(C)CCOC(=O)C(c1ccccc1)C1(O)CCCC1 (stereo not drawn) [Cyclopentolate hydrochloride],inactive: 95.8,inactive: 90.3
CCC(=O)O[C@]1(C(=O)SCF)[C@H](C)C[C@H]2[C@@H]3C[C@H](F)C4=CC(=O)C=C[C@]4(C)[C@@]3(F)[C@@H](O)C[C@@]21C [Fluticasone propionate],inactive: 92,inactive: 96.4
O=C1[C@H]2CCCC[C@H]2C(=O)N1CCCCN1CCN(c2nsc3ccccc23)CC1 [Perospirone],inactive: 64.7,active: 39.7
Clc1cccc(Cl)c1NC1=NCCN1 [Clonidine hydrochloride],inactive: 84.6,inactive: 98.6

Compound,gametocyte viability (concentration: 1 µM),gametocyte viability (concentration: 10 µM)
CO[C@H]1/C=C/O[C@@]2(C)Oc3c(C)c(O)c4c(O)c(c5c(nc6cc(C)ccn65)c4c3C2=O)NC(=O)/C(C)=C\C=C\[C@H](C)[C@H](O)[C@@H](C)[C@@H](O)[C@@H](C)[C@H](OC(C)=O)[C@@H]1C [Rifaximin],inactive: 91.3,inactive: 89
Cc1cc(O)c(C(=O)N[C@@H](C(=O)N[C@@H]2C(=O)N3C(C(=O)O)=C(CSc4nnnn4C)CS[C@H]23)c2ccc(O)cc2)cn1 [Cefpiramide],inactive: 78.6,inactive: 80.2
CC(=O)O[C@]1(C(C)=O)CC[C@H]2[C@@H]3C=C(Cl)C4=CC(=O)CC[C@]4(C)[C@H]3CC[C@@]21C [Chlormadinone acetate],inactive: 87.4,inactive: 88.4
CCN(CC)C(C)CN1c2ccccc2Sc2ccccc21 (stereo not drawn) [Ethopropazine hydrochloride],inactive: 87.8,inactive: 90.3
CCCNC(=O)NS(=O)(=O)c1ccc(Cl)cc1 [Chlorpropamide],inactive: 75.7,inactive: 83.9
CN(C)C(=N)NC(=N)N [Metformin hydrochloride],inactive: 78.6,inactive: 84.3
NCCCCCC(=O)O [Aminocaproic acid],inactive: 91,inactive: 96.7
CNCCc1ccccn1 [Betahistine mesylate],inactive: 83.9,inactive: 94.8
CC=CC(=O)N(CC)c1ccccc1C [Crotamiton],inactive: 94.6,inactive: 87
Nc1nc2c(ncn2COC(CO)CO)c(=O)[nH]1 [Ganciclovir],inactive: 86.3,inactive: 86.6
O=C(c1ccc(F)cc1)C1CCN(CCn2c(=O)[nH]c3ccccc3c2=O)CC1 [Ketanserin tartrate hydrate],inactive: 94.5,inactive: 69
CCN(CC)C(=O)c1ccc(O)c(OC)c1 [Ethamivan],inactive: 85.4,inactive: 85.4
CN(CCCN1c2ccccc2CCc2ccccc21)CC(=O)c1ccc(Cl)cc1 [Lofepramine],inactive: 81.1,inactive: 81.5
CN(C)CCOC(c1ccccc1)c1ccccc1.Cn1c(=O)c2[nH]c(Cl)nc2n(C)c1=O [Dimenhydrinate],inactive: 89,inactive: 94
O=C1NCC2(CCN(CCc3ccccc3)CC2)O1 [Fenspiride hydrochloride],inactive: 90.1,inactive: 90.5
Clc1ccc2c(c1)CCc1cccnc1C2=C1CCNCC1 [Desloratadine],inactive: 87.5,inactive: 81.2
Cc1[nH]cnc1CN1CCc2c(c3ccccc3n2C)C1=O [Alosetron hydrochloride],inactive: 91.8,inactive: 95.6
CCCOc1ccc2[nH]c(NC(=O)OC)nc2c1 [Oxibendazol],inactive: 84.4,inactive: 88.1
Nc1ncnc2c1ncn2[C@@H]1O[C@H](CO)[C@@H](O)[C@@H]1O [Vidarabine],inactive: 93.3,inactive: 92.1
C[C@@](Cc1ccc(O)c(O)c1)(NN)C(=O)O [Carbidopa],inactive: 84.1,inactive: 81.6

Compound,gametocyte viability (concentration: 1 µM),gametocyte viability (concentration: 10 µM)
CCOc1nc2cccc(C(=O)O)c2n1Cc1ccc(-c2ccccc2-c2nnn[nH]2)cc1 [Candesartan],inactive: 90,inactive: 88
O=C1CC[C@@H](C(=O)N2CSC[C@H]2C(=O)O)N1 [Pidotimod],inactive: 83.8,inactive: 81.2
c1ccc(-c2ccc(C(c3ccccc3)n3ccnc3)cc2)cc1 (stereo not drawn) [Bifonazole],inactive: 82.5,inactive: 82.7
Oc1c(Cl)cc(Cl)c2cccnc12 [Chloroxine],inactive: 83.4,inactive: 84.2
CN(C)CCC(c1ccc(Br)cc1)c1ccccn1 (stereo not drawn) [Brompheniramine maleate],inactive: 87,inactive: 85.1
CC(=O)OC[C@H]1O[C@@H]([S-])[C@H](OC(C)=O)[C@@H](OC(C)=O)[C@@H]1OC(C)=O.CCP(CC)CC.[Au+] [Auranofin],inactive: 82.6,active: 3.03
CCC1(c2ccccc2)C(=O)NCNC1=O [Primidone],inactive: 88.9,inactive: 86.1
C[C@H]1O[C@H](O[C@H]2[C@H](O)[C@@H](O)[C@@H](O[C@@H]([C@H](O)[C@@H](O)C=O)[C@H](O)CO)O[C@@H]2CO)[C@H](O)[C@@H](O)[C@@H]1N[C@H]1C=C(CO)[C@@H](O)[C@H](O)[C@H]1O [Acarbose],inactive: 80.6,inactive: 83.5
Cn1c(=O)c2c(ncn2CC2OCCO2)n(C)c1=O [Doxofylline],inactive: 86.6,inactive: 86.7
CN1CCN(CC(=O)N2c3ccccc3C(=O)Nc3cccnc32)CC1 [Pirenzepine dihydrochloride],inactive: 86.5,inactive: 83.3
COC(=O)Nc1nc2cc(Sc3ccccc3)ccc2[nH]1 [Fenbendazole],inactive: 84.5,inactive: 80.4
CN(CCCCCCCCCCN(C)C(=O)Oc1cccc([N+](C)(C)C)c1)C(=O)Oc1cccc([N+](C)(C)C)c1 [Demecarium bromide],inactive: 88.4,inactive: 88.2
CC(=O)N(CC(O)CO)c1c(I)c(C(=O)NCC(O)CO)c(I)c(C(=O)NCC(O)CO)c1I (stereo not drawn) [Iohexol],inactive: 87,inactive: 84.1
CCN(CC)CCNC(=O)c1ccc(N)cc1 [Procainamide hydrochloride],inactive: 84.3,inactive: 79.4
CC(=O)Nc1c(I)c(C(=O)N[C@H]2C(O)O[C@H](CO)[C@@H](O)[C@@H]2O)c(I)c(N(C)C(C)=O)c1I (stereo partly drawn) [Metrizamide],inactive: 84.7,inactive: 88.9
CCOC1O[C@H]([C@@H](COCc2ccccc2)OCc2ccccc2)[C@H](OCc2ccccc2)[C@H]1O (stereo partly drawn) [Tribenoside],inactive: 81.8,inactive: 56.9
CNCC(O)c1ccc(O)c(O)c1 (stereo not drawn) [Racepinephrine HCl],inactive: 81.4,inactive: 86
CC(CNC1CCCCC1)OC(=O)c1ccccc1 (stereo not drawn) [Hexylcaine hydrochloride],inactive: 88.5,inactive: 80.5
Nc1ccc(S(=O)(=O)Nc2nccs2)cc1 [Sulfathiazole],inactive: 96.7,inactive: 91.9

# — the supplement of paper PMC12297408
